Source: the RNAGym collection of RNA variant scans (doi:10.1073/pnas.2313332121)
Variants at the background level are over-represented here.

B1: TPR 5TU (parent)
chain: GGAUCUUCUCGAUCUAACAAAAAAGACAAAUCUGCCACAAAGCUUGAGAGCAUCUUCGGAUGCAGAGGCGGCAGCCUUCGGUGGCGCGAUAGCGCCAACGUUCUCAACUAUGACACGCAAAACGCGUGCUCCGUUGAAUGGAGUUUAUCAUG

Variants of: B1
Experiment: polymerase ribozyme fitness, log enrichment relative to wild type (log ratio); higher = more active; in vitro selection for triplet polymerase activity
Outline: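 A single round of triplicate in vitro selection, including frozen incubation at −7 °C, was applied to PCR-built, transcribed mutant libraries of each subunit of a heterodimeric triplet polymerase ribozyme. Illumina sequencing of input and output libraries retained genotypes with ≥10 input reads and ≥1 read per output. Fitness is the base-2 logarithm of genotype enrichment divided by wild-type enrichment, from inverse-variance-weighted replicate averages.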

Row | Variant | polymerase ribozyme fitness (log ratio)
1 | C10G U61G A89C U134C | ≤ -4.2
2 | C10G A16U A21U C54U A60U G141C | ≤ -4.2
3 | C10U A19G A52G G71C C93A | ≤ -4.2
4 | C10U G94A | -2.69
5 | C10G U53A C57U G86C A106G C108G A113G U127G | ≤ -4.2
6 | C10A C87A C96U A142C | ≤ -4.2
7 | C10U C18U U44G A60G G92A | ≤ -4.2
8 | C10A A47G A64G G81U G84U | ≤ -4.2
9 | C10U U15C A24U A29G A49C C75U C93G C116U G133U U139C | ≤ -4.2
10 | C10A C54A C57U G94A | ≤ -4.2
11 | C10G C32U G81A C87G G92A A110G A115C U135C | ≤ -4.2
12 | C10G A49U G62C A66C G67U C96A C99G U134C U145C A147C U151G | ≤ -4.2
13 | C10A C75G C85U G140U | ≤ -4.2
14 | C10U A23G A41G G58C C79G C99U A142U | ≤ -4.2
15 | C10G A17U A37C G59C C85A | ≤ -4.2
16 | C10U A37C A52C C57U C87A C105G G143U | ≤ -4.2
17 | C10G G25U U55A G88A A106G U130A A150G | ≤ -4.2
18 | C10G C18U C85G G133U A138G | ≤ -4.2
19 | C10A G92A G124U U146A | ≤ -4.2
20 | C10G A49U C51U U61A G67A C95U | ≤ -4.2
21 | C10U U90G C95U U130C C149A | ≤ -4.2

Row | Variant | polymerase ribozyme fitness (log ratio)
22 | C10A C27G U77C G83A | ≤ -4.2
23 | G11A A12C A23C G46A A73U G80C A97U U109A U145A | ≤ -4.2
24 | C10G A16C A28C C125G | ≤ -4.2
25 | C10A G88A | ≤ -4.2
26 | C10U A22G C38A G48U G71A C87G G141A | ≤ -4.2
27 | C10U A16U U44G G50C C79G A97U A120C | ≤ -4.2
28 | C10U A19U A21U C32G G42A G80C A137U | ≤ -4.2
29 | C10U A41U G59U G86C | ≤ -4.2
30 | C10U A91U G117U C132U U145A | ≤ -4.2
31 | C10G U45A G46A G83C C87G C96A A107U C116A C123U U144C | ≤ -4.2
32 | C10G A73U G128U | ≤ -4.2
33 | C10A C69U | ≤ -4.2
34 | C10G A52U | ≤ -4.2
35 | C10A C96A A107G | ≤ -4.2
36 | C10G C27A A39U C75A G92C A97U A121U | ≤ -4.2
37 | C10U G80C A107U | ≤ -4.2
38 | C10U G25C G80A C87G | ≤ -4.2
39 | C10G U77A C93U U144G | ≤ -4.2
40 | C10U C18G U45G C51U G83C G133U | ≤ -4.2
41 | C10G G50A C57U G65A C69G G74U C79G G88U A142C | ≤ -4.2
42 | C10U A30C A41G U44C G70U U78C C95G A119C | ≤ -4.2

Row | Variant | polymerase ribozyme fitness (log ratio)
43 | C10U A29U A30C U33A C87G G92A C95G A113G | ≤ -4.2
44 | C10A U13C A30C G83A G88A A98U C125A A147G | ≤ -4.2
45 | C10U G84C C87U U90C G94U C132A U145C | ≤ -4.2
46 | C10G A60U U77A G84A A115U C149U | ≤ -4.2
47 | C10G A40G C54U A91U C95A C131A U139A A150G | ≤ -4.2
48 | C10G A41U | -4.05
49 | C10A C27U C36G A73C G81A G92U A106G C131A | ≤ -4.2
50 | C10U A23C A91C G140A A150G | ≤ -4.2
51 | C10U A29U C57U C85G C87U | ≤ -4.2
52 | C10U C35U A37U G58A C63A U109G A142G | ≤ -4.2
53 | C10A G84U | ≤ -4.2
54 | C10G C18G A20U A23G G59A G65C U151G | ≤ -4.2
55 | C10A C63U G67A U77C G92A U127C U135G | ≤ -4.2
56 | C10G A41C G71U G80C | ≤ -4.2
57 | C10G A17C C51U G86A | ≤ -4.2
58 | C10G A37U G58A G59C A150G | ≤ -4.2
59 | C10A U31C G46A C69G G80A U82A G86A C99U G100U G141A | ≤ -4.2
60 | C10A C69G A120U A122C C131A | ≤ -4.2
61 | C10U G25C U44A C85G C96G A142G | ≤ -4.2
62 | C10G A24U U45G G50C C51G A106C G124A U127G | ≤ -4.2
63 | C10A G100A C108G C129G | ≤ -4.2

Row | Variant | polymerase ribozyme fitness (log ratio)
64 | C10G A37U G42A G88C | ≤ -4.2
65 | C10G A21U A52G C75G C87U C93A U130G | ≤ -4.2
66 | C10U A24C C35U G48A C85U G136C | ≤ -4.2
67 | C10G G71C C87U U102G G112C C116A G124U | ≤ -4.2
68 | C10G A24U G83U C103A A121U G141A | ≤ -4.2
69 | C10A C87U | -3.47
70 | C10G A20C A40U A64G G70U C87U | ≤ -4.2
71 | C10A C27G A30C U31A U77G G84U A147G | ≤ -4.2
72 | C10U A22C C35G G59C A106C | ≤ -4.2
73 | C10U U15G G50C G62A C72U A106U U109G A119U C123U U139C | ≤ -4.2
74 | C10U C75G C93G C103U | ≤ -4.2
75 | C10G A23C U53G C54A A115G C125G | ≤ -4.2
76 | C10U A49G U53A G83C | ≤ -4.2
77 | C10A G50A A60G G86A G133C | ≤ -4.2
78 | C10U A39G U102C | ≤ -4.2
79 | C10G U33A C69A C96G | ≤ -4.2
80 | C10U A28U G46A A60G A66U G94C A106U U151A | ≤ -4.2
81 | C10G A23U G58C C96G G141U U146G | ≤ -4.2
82 | C10U G80C G84U C87A C105A U151G | ≤ -4.2
83 | C10U A52U A60C G88U | ≤ -4.2
84 | C10U C85G C99U G140U | ≤ -4.2
